# Reference: PubChem BioAssay AID2147 (National Center for Advancing Translational Sciences (NCATS), 2009)
# Out of some 230,000 compounds screened, about 3,600 (1.6%) were called active. Inconclusive results, whose numbers are uncertain, are shown with a selection of clear calls. Calls follow the shape of the dose curve; as a rule, active = well fitted inhibition curve with a large enough effect (not every such curve was filed as active); inconclusive = small, poorly fitted or top-dose-only effect, or another doubt; inactive = no such curve, though single readings can be large or run the other way. Potencies beside an inconclusive call are fits to weak or partial responses and may not hold up.
# Target: Lysine-specific demethylase 4E (Homo sapiens) (UniProt B2RXH2)
# Sequence of UniProt B2RXH2 (B2RXH2 whole entry, looked up, the tested form may be a part): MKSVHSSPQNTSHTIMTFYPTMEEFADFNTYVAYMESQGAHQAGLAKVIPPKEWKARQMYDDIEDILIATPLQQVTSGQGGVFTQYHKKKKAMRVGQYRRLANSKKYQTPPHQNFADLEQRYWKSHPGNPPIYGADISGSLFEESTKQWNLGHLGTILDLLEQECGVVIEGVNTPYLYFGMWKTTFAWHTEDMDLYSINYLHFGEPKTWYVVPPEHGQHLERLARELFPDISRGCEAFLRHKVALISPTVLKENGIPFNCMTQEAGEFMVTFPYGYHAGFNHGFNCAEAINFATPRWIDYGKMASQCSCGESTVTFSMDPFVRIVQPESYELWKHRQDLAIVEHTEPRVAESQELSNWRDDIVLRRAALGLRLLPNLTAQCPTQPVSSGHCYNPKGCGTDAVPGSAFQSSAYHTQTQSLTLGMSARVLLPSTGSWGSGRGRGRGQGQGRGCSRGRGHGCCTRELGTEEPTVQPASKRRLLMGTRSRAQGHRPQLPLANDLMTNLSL
# Test: qHTS Assay for Inhibitors of Human Jumonji Domain Containing 2E (JMJD2E)
# Settings: JMJD2E catalytic domain, FDH-coupled NADH fluorescence (FDH is formaldehyde dehydrogenase); series mostly up to 57.1 µM
# Also: nearly all actives have a fitted effect of over 50% in size.
# Potency is read from the fitted curve at half-maximal effect; tags tell the direction and shape of the fitted curve.
row,SMILES,Potency
1,OCCN=c1cc(-c2ccccc2)oc2ccc(Cl)cc12,"inconclusive: 39.8 µM [inhibitor, single point]"
2,CCOc1ccc(-c2nc[nH]c2[N+](=O)[O-])cc1,inactive
3,Cc1cccc(CNc2ncncc2-c2cccc(NS(C)(=O)=O)c2)c1,"inconclusive: 31.6 µM [inhibitor, single point]"
4,COC(=O)c1ccc(N2NC(=O)/C(=C/c3ccc(-c4ccc(Cl)c(C(=O)O)c4)o3)C2=O)cc1,inactive
5,CCOC(=O)Cc1cc(-c2ccccc2)nc2ccc3ccccc3c12,"inconclusive: 31.6 µM [inhibitor, partial curve]"
6,CCn1c(-c2cc(Cl)ccc2OC)n[nH]c1=S,inactive
7,CC(Sc1nc2sc3c(c2c(=O)n1-c1ccccc1)CCCC3)C(=O)O (centres undefined),inactive
8,O=C1C(Cl)=C(N2CCCCC2)C(=O)N1Cc1ccccc1,inactive
9,CC(C)(C)OC(=O)N[C@@H](Cc1ccccc1)[C@H](O)c1ccco1,inactive
10,CN1CCN(NS(=O)(=O)c2cccs2)CC1,inactive
11,CCOC(=O)c1c(NC(=O)C2C3C=CC(C3)C2C(=O)O)sc2c1CC(C)CC2 (centres undefined),"inconclusive: 39.8 µM [inhibitor, single point]"
12,COc1ccc(-n2nc(C)c3onc(C)c3c2=O)cc1,"inconclusive: 39.8 µM [inhibitor, single point]"
13,COc1ccc(C(=O)NC(=S)NNC(=O)CCc2ccccc2)cc1,"inconclusive: 39.8 µM [inhibitor, single point]"
14,O=C(Nc1cccc(C(F)(F)F)c1)n1cc(-c2ccccn2)c(N2CCOCC2)n1,inactive
15,COc1cccc(CC(NC(C)=O)C(=O)NC2CCN(c3nc(C)cc(C)c3C#N)CC2)c1 (centres undefined),"inconclusive: 12.6 µM [inhibitor, partial curve]"
16,CN(CC(=O)Nc1ccc(F)cc1)c1ccc(S(=O)(=O)N2CCCC2)cn1,"inconclusive: 20 µM [inhibitor, partial curve]"
17,COc1cc(NC(=S)N2CCC(C(N)=O)CC2)c(OC)cc1Cl,inactive
18,COCCCNC(=O)COC(=O)c1ccc(-c2nc3ccccc3s2)s1,"inconclusive: 10 µM [inhibitor, partial curve]"
19,Cc1ccc(Cn2c(NC(=O)c3ccco3)nc3ccccc32)cc1,"inconclusive: 31.6 µM [inhibitor, partial curve]"
20,Cc1ccc(SCC(=O)Nc2ccc(-c3nnc(-c4ccco4)o3)cc2)cc1,"inconclusive: 28.2 µM [inhibitor, single point]"
21,CC(=O)Nc1ccc(S(=O)(=O)C(C#N)c2nc3ccccc3nc2NCCO)cc1 (centres undefined),"inconclusive: 28.2 µM [inhibitor, partial curve]"
22,Cc1ccc(-n2nc3cc(C)c(N)cc3n2)cc1,"inconclusive: 25.1 µM [inhibitor, partial curve]"
23,Cc1cc2n(n1)SC(Nc1cccc3ccccc13)N2 (centres undefined),"inconclusive: 28.2 µM [inhibitor, partial curve]"
24,COC(=O)c1ccccc1NC(=O)c1ccc(COc2ccccc2)o1,"inconclusive: 35.5 µM [inhibitor, single point]"
25,O=c1[nH]cnc2sc3c(c12)CCN(Cc1ccccc1)C3,"inconclusive: 22.4 µM [inhibitor, partial curve]"

row,SMILES,Potency
1,Cn1c2c(c(=O)c3ccccc31)C[C@@H](O)C(C)(C)O2,inactive
2,CSc1nc2ccccc2nc1N(C)S(=O)(=O)c1ccc(C)cc1,"inconclusive: 39.8 µM [inhibitor, single point]"
3,CCc1nc2ccccc2nc1N1CCN(S(=O)(=O)c2ccccc2)CC1,"inconclusive: 35.5 µM [inhibitor, single point]"
4,O=S(=O)(NCC1CCN(S(=O)(=O)c2ccccc2)CC1)c1ccccc1,inactive
5,C=CCNC(=O)c1cc([N+](=O)[O-])cc2c(=O)[nH]c(Nc3ccc(Cl)c(Cl)c3)nc12,inactive
6,CC1=C(C(=O)OCc2ccccc2)C(c2ccc(N(C)C)cc2)NC(=O)N1 (centres undefined),"inconclusive: 39.8 µM [inhibitor, single point]"
7,CCn1c(=O)c2cc(C(=O)NCCN3CCOCC3)sc2c2ccccc21,"inconclusive: 4.47 µM [inhibitor, full curve]"
8,COCC(C)OC(=O)/C(C#N)=C\c1coc2ccc(C)cc2c1=O (centres undefined),"inconclusive: 25.1 µM [inhibitor, partial curve]"
9,Cc1ccc(S(=O)(=O)Nc2cc(C(F)(F)F)ccc2N2CCOCC2)c(C)c1,inactive
10,CCCOc1ccc(Br)cc1CSC(=N)N,"inconclusive: 8.91 µM [inhibitor, single point]"
11,CCOC(=O)c1cn(Cc2ccc(Cl)cc2Cl)c2cc(C)nn2c1=O,"inconclusive: 31.6 µM [inhibitor, partial curve]"
12,CC1CCN(CC(=O)N2CCCc3c2c(=O)oc2ccc(OCc4ccccc4)cc32)CC1,"inconclusive: 28.2 µM [inhibitor, single point]"
13,CC(=C/c1ccco1)/C=N/NC(=O)c1nnn(-c2nonc2N)c1CN(C)C,inactive
14,CCN(CC)CC(O)COc1ccccc1C(=O)CCc1ccccc1 (centres undefined),inactive
15,CCCN(CCC)CC(O)CN(c1cc([N+](=O)[O-])ccc1OC)S(=O)(=O)c1ccccc1 (centres undefined),inactive
16,COc1ccc(CC(NC(C)=O)C(=O)NC2CCN(c3nc(C)cc(C)c3C#N)CC2)c(OC)c1 (centres undefined),"inconclusive: 20 µM [inhibitor, partial curve]"
17,O=C(CSc1nnc2ccc(-c3cccnc3)nn12)Nc1ccc(F)cc1F,inactive
18,O=C(NCc1ccco1)c1cccc(Nc2nc3ccc(Br)cc3[nH]2)c1,inactive
19,Cc1cc(C)c2nc3nc(C)cc(C)c3c(N)c2c1,"inconclusive: 25.1 µM [inhibitor, partial curve]"
20,COc1cc(C2CC(=O)n3c(nc4ccccc43)S2)cc(OC)c1OC (centres undefined),"inconclusive: 6.31 µM [inhibitor, single point]"
21,N#CC1=C(N)SC(N)=C(C#N)C1C1CC=CCC1 (centres undefined),inactive
22,O=C(NCCNC(=O)C(c1ccccc1)c1ccccc1)c1ccco1,inactive
23,COc1ccc(-c2coc3cc(O)ccc3c2=O)c(OC)c1O,"inconclusive: 35.5 µM [inhibitor, partial curve]"
24,Clc1ccc(-c2cn3cccnc3n2)cc1,"inconclusive: 17.8 µM [inhibitor, partial curve]"
25,COC(=O)c1[nH]c2cc(OC)ccc2c1N,"inconclusive: 35.5 µM [inhibitor, partial curve]"

row,SMILES,Potency
1,CCOc1ccc(CC(=O)NNC(=S)NC2CCCCC2)cc1OCC,inactive
2,CN1CCN(CCCNC(=O)c2cc3c(=O)oc4ccccc4c3s2)CC1,"inconclusive: 39.8 µM [inhibitor, single point]"
3,O=C(c1ccccc1)c1ccc(N2CCOCC2)c(F)c1,inactive
4,COc1ccc(CCN=Cc2c(C)[nH]n(-c3ccc([N+](=O)[O-])cc3)c2=O)cc1OC,inactive
5,Cc1nn(-c2ccccc2)c(C)c1S(=O)(=O)O,"inconclusive: 39.8 µM [inhibitor, single point]"
6,CC(=O)N1CC[n+]2c(-c3ccc([N+](=O)[O-])cc3)csc21,"inconclusive: 17.8 µM [inhibitor, partial curve]"
7,CC(=O)NCCc1cc2cc(C)c(C)cc2[nH]c1=O,"inconclusive: 35.5 µM [inhibitor, single point]"
8,c1ccc(-n2cnc3cc(NCc4cccs4)ccc32)cc1,"inconclusive: 22.4 µM [inhibitor, partial curve]"
9,CC(=O)C1=C(c2ccccc2)OC(N)=C(C#N)C1c1ccccc1F (centres undefined),"inconclusive: 39.8 µM [inhibitor, single point]"
10,Cc1ccc2nc(SCc3nnc(-c4ccccc4)o3)[nH]c2c1,inactive
11,Cc1cc(O)cc(O)c1C(=O)OC1(C)C(=O)C=C2C=C(/C=C/C(=O)O)OC=C2C1=O (centres undefined),"inconclusive: 35.5 µM [inhibitor, single point]"
12,COc1cccc(/C=C/C(=O)OCC(=O)Nc2cc(S(=O)(=O)N3CCOCC3)ccc2C)c1,inactive
13,Oc1cccc(C2c3[nH]c4ccccc4c3CCN2Cc2ccoc2)c1 (centres undefined),"inconclusive: 39.8 µM [inhibitor, single point]"
14,CCCC(=O)N1CCN(c2ccc([N+](=O)[O-])c(NC(C)c3ccccc3)c2)CC1 (centres undefined),inactive
15,CC1CN(C(=O)/C=C/c2ccc3c(c2)OCO3)CC(C)O1 (centres undefined),"inconclusive: 28.2 µM [inhibitor, partial curve]"
16,COc1ccccc1/C=C/C(=O)NCc1cccnc1,inactive
17,COC(=O)CCn1[nH]c(=O)c2ccccc2c1=O,"inconclusive: 25.1 µM [inhibitor, single point]"
18,Cc1ccc(S(=O)(=O)c2cc3ccccc3nc2N)cc1,"inconclusive: 31.6 µM [inhibitor, partial curve]"
19,COc1ccc(-c2cc(=O)c3c(O)cc(O[C@@H]4OC(COC5OC(C)C(O)C(O)[C@@H]5O)C(O)C(O)C4O)cc3o2)cc1 (some centres undefined),inactive
20,O=C(COc1ccccc1[N+](=O)[O-])Nc1ccc2c(c1)OCO2,inactive
21,O=C(CSc1ccccc1)Nc1ccc(S(=O)(=O)NCC2CCCO2)cc1 (centres undefined),inactive
22,N/C(=N\OS(=O)(=O)c1ccc(Cl)cc1)c1ccccn1,"inconclusive: 20 µM [inhibitor, partial curve]"
23,COCCCNC(=O)c1cc2c(=O)n3cc(C)ccc3nc2nc1NCC1CCCO1 (centres undefined),"inconclusive: 14.1 µM [inhibitor, partial curve]"
24,CC(=O)Nc1nc(C)c(-c2csc(Nc3ccc(S(N)(=O)=O)cc3)n2)s1,"inconclusive: 35.5 µM [inhibitor, partial curve]"
